# Assay results as given in PMC4336329 (PLoS ONE, 2015).
# Hit rate of the full screen: of about 310,000 compounds, about 14,000 (4.5%) showed an effect of 50% or more. Effects have a minus sign here. The list shows a part of the results.
# Target: human ether-à-go-go-related gene (hERG) potassium channel (human, UniProt Q12809)
# Experiment: primary screen, population patch clamp on CHO cells stably expressing hERG
# 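Also: peak tail current of the secondary pulse compared with the same well before compound.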
# human ether-à-go-go-related gene (hERG) potassium channel, sequence (Q12809 whole entry, looked up): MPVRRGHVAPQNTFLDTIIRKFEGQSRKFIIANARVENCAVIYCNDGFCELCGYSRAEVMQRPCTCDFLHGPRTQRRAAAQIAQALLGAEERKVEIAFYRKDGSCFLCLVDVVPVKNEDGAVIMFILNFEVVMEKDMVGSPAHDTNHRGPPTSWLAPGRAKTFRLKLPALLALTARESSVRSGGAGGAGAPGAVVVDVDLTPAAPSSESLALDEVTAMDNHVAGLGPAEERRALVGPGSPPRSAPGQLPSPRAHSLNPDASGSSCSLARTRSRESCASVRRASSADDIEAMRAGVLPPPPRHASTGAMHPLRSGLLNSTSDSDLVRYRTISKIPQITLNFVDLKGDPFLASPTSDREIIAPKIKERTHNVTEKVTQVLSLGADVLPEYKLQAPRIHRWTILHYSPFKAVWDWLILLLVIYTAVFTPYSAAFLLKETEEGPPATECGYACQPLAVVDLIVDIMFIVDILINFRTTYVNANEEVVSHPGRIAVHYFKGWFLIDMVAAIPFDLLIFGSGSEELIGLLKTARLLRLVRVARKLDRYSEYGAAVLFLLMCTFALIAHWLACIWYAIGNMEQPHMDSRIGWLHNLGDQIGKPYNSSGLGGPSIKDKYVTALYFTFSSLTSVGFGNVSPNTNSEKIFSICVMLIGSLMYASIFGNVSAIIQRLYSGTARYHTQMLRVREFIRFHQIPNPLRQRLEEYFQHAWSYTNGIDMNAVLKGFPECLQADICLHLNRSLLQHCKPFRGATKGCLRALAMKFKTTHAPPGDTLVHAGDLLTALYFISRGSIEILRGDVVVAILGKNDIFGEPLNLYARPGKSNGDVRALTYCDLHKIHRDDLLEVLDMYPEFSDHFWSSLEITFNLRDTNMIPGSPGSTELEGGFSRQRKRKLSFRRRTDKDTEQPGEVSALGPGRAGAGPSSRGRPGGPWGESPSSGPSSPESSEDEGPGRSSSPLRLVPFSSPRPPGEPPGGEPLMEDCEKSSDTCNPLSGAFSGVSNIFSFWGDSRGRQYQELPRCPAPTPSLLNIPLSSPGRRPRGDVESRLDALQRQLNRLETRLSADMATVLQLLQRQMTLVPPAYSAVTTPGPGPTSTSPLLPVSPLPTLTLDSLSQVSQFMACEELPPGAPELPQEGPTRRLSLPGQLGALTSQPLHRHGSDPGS
row,Structure (SMILES),"hERG current change (%, negative = inhibition) at 10uM [%]"
1,CCOc1ccc(S(=O)(=O)N2CCC(C(=O)N3CCN(C)CC3)CC2)cc1Cl,5.6
2,OCCN1CCN(C(=S)NC2CCCC2)CC1,-15.5
3,O=C(CN1CCN(c2cccc(Cl)c2)CC1)c1ccc(O)cc1O,-8.43
4,Cc1ccc(SCc2[nH]nc3c2C2(C(=O)Nc4ccc([N+](=O)[O-])cc42)C(C#N)=C(N)O3)cc1 (centres unmarked),-3.87
5,Cc1ccc(CNC(=O)CN(c2ccc(Cl)cc2)S(C)(=O)=O)cc1,2.81
6,CC1Cc2cc(/C(O)=C3/C(=O)C(=O)N(CCCN4CCOCC4)C3c3ccc(C(C)C)cc3)ccc2O1 (centres unmarked),9.02
7,O=C(Nc1cccc(-c2nc3ncccc3o2)c1)c1sc2ccccc2c1Cl,12.6
8,CSc1cccc(NC(=O)CCC(=O)O)c1,-0.827
9,COc1ccccc1C1C2CCCCC2(O)CCN1CC(=O)Nc1ccccc1 (centres unmarked),-32.5
10,COC(=O)CN(c1ccc(F)cc1)S(=O)(=O)c1ccc2c(c1)OCCO2,-32.2
11,CC1Cc2ccccc2N1CC(=O)NC(c1ccccc1)c1ccccc1.O=C(O)C(=O)O (centres unmarked),19.1
12,Cc1ccc(S(=O)(=O)CCC(=O)c2ccc(F)cc2)cc1,8.7
13,C=CCSc1nccc(=O)[nH]1,14.8
14,O=S(=O)(NCC1CCCO1)c1ccc(Oc2ccccc2)cc1 (centres unmarked),-7.25
15,C=CCN(CC=C)C(=O)c1ccc(OC2CCN(Cc3ccccn3)CC2)cc1,-9.67
16,CSCCC(NC(=O)c1ccc(Cl)cc1)C(=O)OCC(=O)Nc1cc(Cl)ccc1C#N (centres unmarked),9.99
17,COc1ccc(NC(=O)c2cc(CC(C)C)on2)cc1OC,-11.4
18,COc1ccc(-c2cnn3c4c(c(C)nc23)CCN4C2CCCC2)cc1OC,2.7
19,CC(C)c1ccc(NC(=O)COC(=O)/C=C/c2cccc(Br)c2)cc1,-6.17
20,Cc1csc(CNC(=O)C2CCC(=O)N(CCc3cccc(F)c3)C2)n1 (centres unmarked),-13.9
21,O=C(c1ccco1)N1CCN(C(=O)c2ccc(COc3ccc(F)cc3)o2)CC1,-62.6
22,C#Cc1ccc(CN2CCC(Oc3ccc(C(=O)NCc4ccccn4)cc3)CC2)cc1,-25

row,Structure (SMILES),"hERG current change (%, negative = inhibition) at 10uM [%]"
1,Cc1cc(C(=O)Nc2cccc3ccccc23)n(-c2ccccc2)n1,1.06
2,Cc1cccc(OP(N)(=O)Oc2cccc(C)c2)c1,12.5
3,Cc1ccc(C)c(OC(=O)c2cncc(Br)c2)c1,-14.6
4,CCOC(=O)N1CCN(C(=O)CSCC(=O)Nc2nc(-c3ccc(OC)cc3)cs2)CC1,-34.6
5,COc1ccc(-c2cc(-c3ccc(N)cc3)nc(N)c2C#N)cc1OC,-5.47
6,CCOC(=O)C(C)N1CC(=O)N(c2ccccc2)C1=O (centres unmarked),12.9
7,Cc1ccc(/C=N/NC(=O)CSc2nc3ccccc3c(=O)n2-c2ccccc2)s1,-5.57
8,Cc1ccc(S(=O)(=O)N2CCN(C(=O)CN3C(=O)NC4(CCOc5ccccc54)C3=O)CC2)cc1 (centres unmarked),1.01
9,CCn1c(SCC(=O)NCC2CCCO2)nnc1-c1ccc(Cl)cc1 (centres unmarked),-2.64
10,COc1ccc(/C=N/NC(=O)CCn2cnc(-c3ccccc3)c2-c2ccccc2)cc1,-46.2
11,COc1ccc(OC)c(S(=O)(=O)NCC(c2ccc3c(c2)OCO3)N2CCOCC2)c1 (centres unmarked),-28.4
12,Brc1cc(Cc2nnc(-c3ccccc3)o2)c(Br)s1,9.83
13,CCOC(=O)c1c(C)[nH]c(C(=O)OC(C)C(=O)NC2CCCCC2C)c1C (centres unmarked),-5.27
14,COc1ccc(CC(=O)Nc2sc3c(c2C(N)=O)CCCC3)cc1,-1.39
15,CCOC(=O)C(NC(C)=O)(Nc1ccc(S(=O)(=O)Nc2ncccn2)cc1)C(F)(F)F (centres unmarked),28.7
16,O=C(c1ccc(COCC(F)(F)F)cc1)N1CCN(c2ccccn2)CC1,-18.1
17,CC(C)CNC(=O)c1ccccc1NC(=O)c1ccc(CN2CCOCC2)cc1,-6.15
18,Cn1c(O)c(/C=C2\C=Nc3ccccc32)sc1=Nc1ccc(C(=O)O)cc1,-21.5
19,CCCSc1ncccc1C(=O)O,13.9
20,Cc1c(O)c2c3c(cccc3c1O)C(=O)N(c1ccccc1)C2=O,-14
21,CCOC(=O)C1(Cc2cccc(OC)c2)CCN(CC=C(C)C)CC1,-22
22,Cc1ccc(C(=O)NCC(=O)NCCc2ccc(S(N)(=O)=O)cc2)s1,1.22
